The list shows a part of the results.
The sequences below were run on PfSIP2 AP2 domain 1 (GST-tagged) (assay: gcPBM binding intensity (ln(normalized median fluorescence intensity)); higher = stronger DNA binding).
How it was run: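 DNA-binding domains from P. falciparum, fused to GST and produced in E. coli, were put on an Agilent 4 × 180k double-stranded probe array for 1 h in 1× PBS holding 1% milk, 0.2 mg/ml BSA, 0.5% salmon testes DNA and 0.03% Triton X-100. Probes were primer-extended, 36 bp long and drawn from intergenic genomic regions, with negative controls included. After Alexa488 anti-GST antibody detection and a 488 nm scan, binding intensity was set as the highest Masliner-normalised natural-log median intensity across replicate spots of either probe orientation.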

Row | Sequence | gcPBM binding intensity (ln)
1 | TTAATGGCAAAATAGGCACACACACCGATACATATA [CACACA_site8263] | 6.93
2 | ACAGTAGCCAGTAACTGTACGGATTGTAGAGATCAG [XGTACX_site4873] | 6.94
3 | ATAATATTTAGGTGTGCACACAAACATACATATATA [CACACA_site9120] | 8.81
4 | ATGATAATTTTTTTCTCACACACAAATATTTTAATC [CACACA_site3665] | 6.93
5 | CAATAATATATATATTGTACATTTTTTTTTATTATT [XGTACX_site3149] | 6.77
6 | AAAGATTCTTTGAATTGTACAAATATATTTACTCAC [XGTACX_site8772] | 7.01
7 | ATGTTCCATTTTACTTGTACTAATTTTTTCCTATCT [XGTACX_site6474] | 7.11
8 | TATATTATTTTCTTTTGTACACATATATATCAGTGT [XGTACX_site664] | 7.07
9 | ATAATAATAAAGTATGCATGCATATAATATAATATA [TGCATGCA_site796] | 7.13
10 | TTTTTATTGCAATACTTATATTTTTTTATGATTAAA [TGCATGCA_negctrl_site147] | 7.01
11 | AACGAAGCATAAAATGTTATGTATATATATAAATAT [TGCATGCA_negctrl_site304] | 7.09
12 | TACCAAAAAAAAAAAATAATAATAAAAAAAAAAAAA [TGCATGCA_negctrl_site11] | 6.54
13 | ATCATTTTGTGTTCAAGTACATAATGTTTTACACAA [XGTACX_site3565] | 6.76
14 | ATGTGGAAATAGAGCACACATATATATAATATATAT [CACACA_site884] | 7.33
15 | CATACATTATAAGATACATGCATATATCTGAACATA [TGCATGCA_site797] | 7.02
16 | GCAAAACATTTTTAAAATAAAAATAATAAAATATAT [CACACA_negctrl_site219] | 6.81
17 | TATTCATTAAACCATACACACATAATTTTTTTATAA [CACACA_site4618] | 7.04
18 | ATATATTATATAAAAAGTACTAAAATAGTAAGATGT [XGTACX_site7493] | 7.37
19 | AATGATTTTAAATGAACATAATTTATATTCATAACA [GTGCAC_negctrl_site256] | 6.7
20 | GTGTGCCAAATTAGCACACACATATATACATGAATT [CACACA_site7346] | 7.16
21 | ACACATAATATAAAGGTGCTATATTGTATTCATTTT [GTGCAC_site9457] | 8.36
22 | TTTTCATACACTGCTAGTATATACTACCACTGACAT [GTGCAC_negctrl_site514] | 7.15

Row | Sequence | gcPBM binding intensity (ln)
23 | AAACATATATTAAGCACACACAAACAAAAAAACAAA [CACACA_site2549] | 7.13
24 | TGCAAAAAAAAAAAAAAAAAATATATGGAAATATAT [GTGCAC_negctrl_site257] | 6.73
25 | ACATTGAACAAAATAGTAAGCACATATATATATATA [GTGCAC_negctrl_site679] | 9.24
26 | ACGTATCAATTTATTGGTACACATAAATATATATAT [XGTACX_site5556] | 8.68
27 | TGATTCATTGATAAGGGTACATTTATAATTATGATA [XGTACX_site6319] | 6.94
28 | AAAATGAATAAAAATACACACATATATGTTATTCTC [CACACA_site2671] | 6.8
29 | AAATTGAGACAACAGGTGCATATAAATATACAGTGT [GTGCAC_site9634] | 10.6
30 | CCAACATGCAGACGCACACACAAAAAAAGCATGCAT [CACACA_site74] | 7.15
31 | AATAATATATATATTACACACTAATTGTATTATATA [CACACA_site448] | 6.97
32 | TAACAATATCTAGATACACACACATATCTCTCAATC [CACACA_site8122] | 6.86
33 | ATTTATTTATTTAGCTGTACATTTATACAGAACGAT [XGTACX_site3336] | 7
34 | TTAATACCCGGACACACACACACAAAATAAAATACA [CACACA_site4296] | 7.3
35 | AATTTTTGTTACAAGATGCACTTAATTTTTCTAAAT | 8.46
36 | AATAAAAATTCAAGTTGTACTTTTTTAAAAATACAA [XGTACX_site3949] | 6.76
37 | TGATAACCAAAAAGGGGTACATACACAAAAAAATAC [XGTACX_site1254] | 7.89
38 | AACAACATTTGATAAACACACAGAAGTATAAATATA [CACACA_site5327] | 6.94
39 | TACTTATTAGACTATTGTACATACATTATTAATATT [XGTACX_site7849] | 7.36
40 | TAAAAAATTAAGCAACGTACAAATGAAAAGTATAAT [XGTACX_site1058] | 7.16
41 | TAACAATAACTTTATACACACATAATATAAATATAT [CACACA_site7635] | 6.93
42 | TAAAATTTTAACAAAAAAAAAAAAAAAAAAAGAAAA [CACACA_negctrl_site1335] | 6.76
43 | TATATCATCATGTATGTACACACATACATATATTAT [CACACA_site8387] | 7.09
44 | TACGTATTATAAATATGTACATATAATATGTATATA [XGTACX_site468] | 7

Row | Sequence | gcPBM binding intensity (ln)
45 | ATAAAGAAAAATAGAAGTACATATATGCATGTTAAT [XGTACX_site4480] | 7.2
46 | AACAATAAAAATAATTGTACAAGTCTAAAAAAAATT [XGTACX_site20] | 6.86
47 | ATAACAAAATAATAATGTACGTATAAATATAATTTA [XGTACX_site6049] | 7.29
48 | CAAAAACATACCTACACACACAATATGTATATATAA [CACACA_site3514] | 6.94
49 | AAATTGAAATATTCCTGTACACATTTTGAAAACTTA [XGTACX_site6101] | 6.96
50 | AAAATATAGTAACACATACACACATATATATTTATA [CACACA_site2504] | 7.04
51 | TTGTTATGTTTTATTTGTACGTAGGTTTCTATCAAA [XGTACX_site7636] | 7.25
52 | TATTAAACTAAATGTAGTACATACACAAAAGAAACC [XGTACX_site606] | 7.82
53 | TGTTTGAATATAATCACACATTTATATAAAAAGTTA [CACACA_site5237] | 6.72
54 | TTATGAAAATATTTTTTTCGTTTGATGTATATGTTT [CACACA_negctrl_site1556] | 6.88
55 | AAAAAATATAAATATGTAAAAAGAGAAAAAAAAAAG [GTGCAC_negctrl_site9] | 7.02
56 | TATAAACATAAAACCAGTACATATATATTTTTCTTC [XGTACX_site212] | 6.84
57 | ATATTTAATTCATCATGTACACAAATAAGAAACAAA [XGTACX_site8076] | 7.56
58 | TGAAAATGGGAACCGTGTACAGGGCAGTTATAGGGG [XGTACX_site2950] | 7.27
59 | GATTCGATCTATATATGTACACATAAATATTTTTTG [XGTACX_site7015] | 7.21
60 | TATATATTTATTTATTGTACACTCTTTAAGAATACA [XGTACX_site2569] | 6.95
61 | TATATATATATATATATATATATATATGTGTATGTA [TGCATGCA_negctrl_site255] | 9.4
62 | ATACACAAGAATATGTTGCACTTTTATATTCGTATG | 7.9
63 | AATAAAATTGACCATTCACACAAGAAAAATTAATCA [CACACA_site5636] | 6.72
64 | AATATTTATATTAACTGTACAGAAAATATCTTTGCT [XGTACX_site8130] | 7.05
65 | GATATATAAATTGACACACACATATATACCTATATA [CACACA_site6689] | 7.07
66 | TTCTTTTTTTTTTTTTCATGTATATTAAACTTTTCA [TGCATGCA_negctrl_site592] | 7.05

Row | Sequence | gcPBM binding intensity (ln)
67 | CATAAGATTTTTACATGTACATATTTATAATATATT [XGTACX_site6578] | 7.2
68 | AATATAAAAATGTTTACACACACACCGAAATATATT [CACACA_site8800] | 7.3
69 | TATGCCATGGCATAATGTACATAAGTGACCTCATAA [XGTACX_site1294] | 6.96
70 | ATATATTTAAAAAAATGTACAAATCATAAATGCAAG [XGTACX_site4230] | 7.07
71 | TATAATGTTGATGATAGTACGTATGAGTTCAAAAAA [XGTACX_site3651] | 7.07
72 | AGAAATTAAATGTAAGCACACATAAATTATACACAT [CACACA_site9098] | 6.89
73 | AAAAAATTATACCAGTGTACTTTTTTGGTTTTTCTT [XGTACX_site2601] | 6.99
74 | AAAAGAATTAATTTATGTACTAATTTCAAGAAATAA [XGTACX_site3241] | 6.93
75 | TCCTTACACACACTTTTTTTTTTTTTTTTTTCTACA [GTGCAC_negctrl_site263] | 6.97
76 | ATATATTATCAACTTACACACAGAAAACTATAATAA [CACACA_site6275] | 7.02
77 | CTTTTTCCTTTATAAAGTACTTAAAATATTTAGATA [XGTACX_site4259] | 7.12
78 | CTCGATCAAGTGTATGCATGTACCAGTGAACAAAAA [TGCATGCA_site635] | 7.05
79 | AAAAAAAAAAATAAATGTACAAAATAATGGGGAACA [XGTACX_site8723] | 7.12
80 | GTGAATGATTTAAGTACACACCGGTATTTATTCAAA [CACACA_site4950] | 7.09
81 | AAAAAAAAAAAATACACACACACATATTTATTTATA [CACACA_site6483] | 6.85
82 | TGTATTAAAAATTTGGTGCAACTTTTACATAATAAT | 10.5
83 | TTTTTTTTTTTTTTTTGTACGAATAAACAAGTTATT [XGTACX_site5473] | 6.92
84 | ATATATATATATATATGTACATATTTTATTTAATTT [XGTACX_site1807] | 9.33
85 | AACTGTACAATTTTTGTGCACAATAATTATTAATAT [GTGCAC_site9462] | 8.74
86 | TGCTATATAATATGAGCACACATAAGATTTGGTGTT [CACACA_site8148] | 6.8
87 | ATATTTTTATTTAAACGTACATACACGTTGAAAAGA [XGTACX_site4567] | 7.19
88 | TAATGCATTATTAGAATACACACCATACGCATATTT [CACACA_site289] | 6.85
